# Results: article PMC6919601, “Identification of Plasmodium dipeptidyl aminopeptidase allosteric inhibitors by high throughput screening” (PLoS ONE, 2019)
# In all, about 110,000 compounds went through this assay and about 230 (0.21%) showed an effect of 50% or more. This is one part of the list.
# Target: DPAP1 (Plasmodium falciparum, UniProt Q8IIJ9)
# Assay: primary screen, percent inhibition; read by cleavage of a fluorogenic dipeptide substrate; higher = more effect of the substance
# Parameters: species or system P. falciparum D10 trophozoite lysates; single well
# 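Also: 30 min substrate incubation versus DMSO and 10 µM JCP410 controls.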
# DPAP1, sequence (Q8IIJ9 whole entry, looked up): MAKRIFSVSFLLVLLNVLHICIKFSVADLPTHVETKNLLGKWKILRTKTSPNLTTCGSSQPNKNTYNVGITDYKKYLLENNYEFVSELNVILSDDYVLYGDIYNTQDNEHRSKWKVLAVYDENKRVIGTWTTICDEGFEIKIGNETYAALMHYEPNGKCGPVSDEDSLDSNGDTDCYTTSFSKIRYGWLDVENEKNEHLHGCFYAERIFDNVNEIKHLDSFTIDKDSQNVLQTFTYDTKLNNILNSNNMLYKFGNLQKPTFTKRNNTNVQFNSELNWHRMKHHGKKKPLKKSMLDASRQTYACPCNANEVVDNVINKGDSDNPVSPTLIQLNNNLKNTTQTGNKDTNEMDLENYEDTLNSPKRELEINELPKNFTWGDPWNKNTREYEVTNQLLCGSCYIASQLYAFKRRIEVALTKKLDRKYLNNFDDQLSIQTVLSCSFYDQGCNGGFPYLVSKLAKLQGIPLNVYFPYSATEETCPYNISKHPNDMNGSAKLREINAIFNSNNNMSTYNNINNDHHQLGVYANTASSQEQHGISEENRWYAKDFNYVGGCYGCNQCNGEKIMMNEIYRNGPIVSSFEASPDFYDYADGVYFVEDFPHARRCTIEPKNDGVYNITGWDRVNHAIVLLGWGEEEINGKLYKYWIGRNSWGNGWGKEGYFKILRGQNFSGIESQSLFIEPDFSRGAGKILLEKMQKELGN
row,SMILES,% Inhibition @ 10 uM [%]
1,CCCCN(CC)CCNC(=O)CCCn1nc(CC)n2c(cc3oc(C)cc32)c1=O,-3.35
2,CCCC(=O)n1nc(-c2ccccc2)nc1NCc1ccco1,-6.71
3,CC(NC(=O)c1ccc(Cl)cc1)c1ccccc1 (stereo not drawn),0.035
4,Cc1ccc2[nH]c(C3=C(N)N(CC4CCCO4)CC3=O)nc2c1 (stereo not drawn),0.486
5,O=S1(=O)CC(N2CCOCC2)c2ccccc21 (stereo not drawn),0.757
6,Cc1nnc(N2CCC(C(=O)N3CCc4ccccc4C3)CC2)c2nn(-c3ccccc3)c(C)c12,5.5
7,CC(=O)Nc1ccc2oc(-c3cc(F)c(F)cc3Cl)nc2c1,-7.89
8,Cc1ccc2oc(=O)c3cc(C(=O)NC(C)c4ccc5c(c4)OCCO5)sc3c2c1 (stereo not drawn),5.74
9,COc1ccc(CCNS(=O)(=O)c2ccc(-c3ccc(O)nn3)s2)cc1OC,-3.26
10,Cn1c(=O)c2c(ncn2C/C=C/c2ccccc2)n(C)c1=O,-1.28
11,O=C1c2ccccc2C(=O)N1CC(=O)n1nc(-c2ccco2)nc1NCc1ccc(Cl)cc1,-6.98
12,Cn1nccc1CNC(=O)c1ccc(COc2ccccc2Cl)cc1,-4.15
13,Cc1ccc(OCC(=O)Nc2ccc(C)c(O)c2)cc1,-0.545
14,O=C(c1ccc(F)cc1)C(CN1CCOCC1)c1ccccc1 (stereo not drawn),3.44
15,CN(C)S(=O)(=O)c1ccc(C(=O)Nc2ccccc2-c2nc3ccccc3s2)cc1,-0.424
16,CC[C@@H](C)[C@H](NC(=O)c1ccccc1)C(=O)N[C@@H](CCc1ccccc1)C(=O)CO,6.4
17,COc1ccccc1CNC(=O)Cn1ncc2c3ccccc3n(Cc3ccccc3F)c2c1=O,1.8
18,COc1ccccc1Cn1nnc2c(O)nc(C3CCN(C(=O)Cc4ccc(F)cc4)CC3)nc21,3.81
19,Cc1cccc(C(=O)Nc2scc(CC(C)C)c2C(=O)O)c1,6.51
20,O=C(CN(Cc1ccccc1)S(=O)(=O)c1cc(Cl)ccc1Cl)N1CCCCCC1,-6.02
21,CCn1cc(Br)c(C(=O)Nc2ccccc2OC)n1,-5.69
22,CCc1oc(C(N)=O)cc1COC,9.78
23,Cc1cccc(NC(=O)CN2C(=O)c3cccc4cccc2c34)c1,-9.02
24,COc1ccc(-c2cn(-c3cccc(C)c3)c(O)n2)cc1OC,-2.01
25,CCCO/C(O)=C1\C(C)=NC2=C(C(=O)CC(c3ccc(OC)cc3)C2)C1c1ccccc1F (stereo not drawn),3.47
26,Cc1cccn2c(=O)c3cc(C(=O)NCC4COc5ccccc5O4)n(C)c3nc12 (stereo not drawn),2.03

row,SMILES,% Inhibition @ 10 uM [%]
1,COc1ccc(NC(=O)Cn2cnc3scc(-c4ccc(C)cc4)c3c2=O)cc1,-6.3
2,Cc1ccc(C2Nc3ccccc3C(=O)N2c2ccc(C)cc2)cc1 (stereo not drawn),3.05
3,CCOC(=O)N1CCC(NC(=O)c2ccc3snnc3c2)CC1,3.24
4,CCOc1ccc(C(CN)CC(=O)O)cc1OCC (stereo not drawn),0.503
5,Cc1cccc(N2C(=O)C3C4c5ccccc5C(C)(c5ccccc54)C3C2=O)c1 (stereo not drawn),2.6
6,O=S(=O)(c1ccc2ccccc2c1)N1CCCc2ccccc21,1.83
7,O=C(O)COC(c1ccccc1)c1ccccc1,-1.21
8,CC(=O)Nc1nc(-c2ccccc2)nc(C)c1C(C)=O,-0.0735
9,CN1CCN(C(=O)Cn2ncc3c4ccccc4nc-3c2O)CC1,1.43
10,Cc1oc2ncnc(NCC3CCCO3)c2c1C(=O)O (stereo not drawn),-5.76
11,COc1ccc(-n2nc(C(=O)N3CCCCC3)nc2-c2ccccc2)cc1,-3.03
12,Cc1nc2c(c(C)nn2-c2ccccc2)c(C)c1C,-1.24
13,CCN(c1ccccc1)S(=O)(=O)c1ccc(N)cc1,4.49
14,COc1ccc(C2CC(c3cccs3)=NN2C(C)=O)cc1OC (stereo not drawn),0.361
15,CCOC(=O)c1c(NC(=O)c2cccc3ccccc23)sc(C)c1C,1.25
16,O=C(c1cc2ccc3cccnc3c2[nH]1)N1CCN(Cc2ccc3c(c2)OCO3)CC1,-5.57
17,Cc1ccc(NC(=O)CCc2ccc(S(=O)(=O)NC(C)c3ccccc3)cc2)cc1 (stereo not drawn),-0.318
18,CCN(CC)CCCCCCOc1cccc(C)c1,3.74
19,CN1C(C(=O)N2CCC3(CC2)OCCO3)=CC(c2ccco2)=NS1(=O)=O,2.32
20,O=C(Nc1cccc2ccccc12)c1nc2nc(-c3ccccc3)cc(C(F)(F)F)n2n1,-2.58
21,COc1ccc2sc(N(CCCN(C)C)C(=O)Cc3ccccc3)nc2c1,2.75
22,Cc1nc2nncn2c(NCCC(C)C)c1C,-0.808
23,CCOc1ccc(C2C(C(=O)OC)=CN(C(C)c3ccccc3)C=C2C(=O)OC)cc1 (stereo not drawn),1.88
24,COC(=O)c1nnn(CC(=O)NCc2ccc3c(c2)OCO3)c1C(=O)OC,0.351
25,CCOC(=O)N1CCC(NC(=O)CN2N=C(c3ccc(Cl)cc3)CCC2=O)CC1,-4.83
